Experimental data published in the supplement of paper PMC8728848.
This is one part of the list.

Assays:
Assay in all cases: glycan array binding signal (z-score within array); higher = stronger binding
Conditions in all cases: glycan notation: IUPAC condensed, linker removed
[1] = target: Gal(b1-4)GlcNAc(b1-2)Man(a1-3)[GlcNAc(b1-2)Man(a1-6)]Man(b1-4)GlcNAc(b1-4)GlcNAc
Procedure, shortened: (§1)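 Arrays were curated from the Consortium for Functional Glycomics database, 3228 in total, and kept only where the protein sequence was available. Binding is expressed as a within-array Z-score. This score was averaged across arrays of the same protein sequence at different concentrations or buffers and across linkers, and negative values can be read as non-binding.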

[2] = target: Gal(b1-4)GlcNAc(b1-2)Man(a1-3)[GlcNAc(b1-4)][Gal(b1-4)GlcNAc(b1-2)Man(a1-6)]Man(b1-4)GlcNAc(b1-4)GlcNAc
Procedure, shortened: as §1

[3] = target: Gal(b1-4)GlcNAc(b1-2)Man(a1-3)[Man(a1-6)]Man(b1-4)GlcNAc(b1-4)GlcNAc
Procedure, shortened: as §1

[4] = target: Gal(b1-4)GlcNAc(b1-2)Man(a1-6)Man(b1-4)GlcNAc(b1-4)GlcNAc
Procedure, shortened: as §1

[5] = target: Gal(b1-4)GlcNAc(b1-2)Man(a1-6)[GlcNAc(b1-2)Man(a1-3)]Man(b1-4)GlcNAc(b1-4)GlcNAc
Procedure, shortened: as §1

[6] = target: Gal(b1-4)GlcNAc(b1-2)Man(a1-6)[Man(a1-3)]Man(b1-4)GlcNAc(b1-4)GlcNAc
Procedure, shortened: as §1

[7] = target: Gal(b1-4)GlcNAc(b1-2)[Gal(b1-4)GlcNAc(b1-4)]Man(a1-3)[Gal(b1-4)GlcNAc(b1-2)Man(a1-6)]Man(b1-4)GlcNAc(b1-4)GlcNAc
Procedure, shortened: as §1

[8] = target: Gal(b1-4)GlcNAc(b1-2)[Gal(b1-4)GlcNAc(b1-4)]Man(a1-3)[Gal(b1-4)GlcNAc(b1-2)[Gal(b1-4)GlcNAc(b1-6)]Man(a1-6)]Man(b1-4)GlcNAc(b1-4)GlcNAc
Procedure, shortened: as §1

[9] = target: Gal(b1-4)GlcNAc(b1-2)[Gal(b1-4)GlcNAc(b1-4)]Man(a1-3)[GlcNAc(b1-4)][Gal(b1-4)GlcNAc(b1-2)Man(a1-6)]Man(b1-4)GlcNAc(b1-4)GlcNAc
Procedure, shortened: as §1

[10] = target: Gal(b1-4)GlcNAc(b1-2)[Gal(b1-4)GlcNAc(b1-4)]Man(a1-3)[GlcNAc(b1-4)][Gal(b1-4)GlcNAc(b1-2)[Gal(b1-4)GlcNAc(b1-6)]Man(a1-6)]Man(b1-4)GlcNAc(b1-4)GlcNAc
Procedure, shortened: as §1

[11] = target: Gal(b1-4)GlcNAc(b1-2)[Gal(b1-4)GlcNAc(b1-6)]Man(a1-6)[Gal(b1-4)GlcNAc(b1-2)Man(a1-3)]Man(b1-4)GlcNAc(b1-4)GlcNAc
Procedure, shortened: as §1

[12] = target: Gal(b1-4)GlcNAc(b1-2)[Gal(b1-4)GlcNAc(b1-6)]Man(a1-6)[Gal(b1-4)GlcNAc(b1-2)Man(a1-3)]Man(b1-4)GlcNAc(b1-4)[Fuc(a1-6)]GlcNAc
Procedure, shortened: as §1

[13] = target: Gal(b1-4)GlcNAc(b1-2)[Gal(b1-4)GlcNAc(b1-6)]Man(a1-6)[GlcNAc(b1-4)][Gal(b1-4)GlcNAc(b1-2)Man(a1-3)]Man(b1-4)GlcNAc(b1-4)GlcNAc
Procedure, shortened: as §1

[14] = target: Gal(b1-4)GlcNAc(b1-2)[Gal(b1-4)GlcNAc(b1-6)]Man(a1-6)[GlcNAc(b1-4)][Gal(b1-4)GlcNAc(b1-2)[Gal(b1-4)GlcNAc(b1-4)]Man(a1-3)]Man(b1-4)GlcNAc(b1-4)[Fuc(a1-6)]GlcNAc
Procedure, shortened: as §1

[15] = target: Gal(b1-4)GlcNAc(b1-3)Gal(b1-3)GalNAc
Procedure, shortened: as §1

[16] = target: Gal(b1-4)GlcNAc(b1-3)Gal(b1-3)GlcNAc
Procedure, shortened: as §1

[17] = target: Gal(b1-4)GlcNAc(b1-3)Gal(b1-4)Glc
Procedure, shortened: as §1

[18] = target: Gal(b1-4)GlcNAc(b1-3)Gal(b1-4)GlcNAc
Procedure, shortened: as §1

[19] = target: Gal(b1-4)GlcNAc(b1-3)Gal(b1-4)GlcNAc(b1-2)Man(a1-3)[Gal(b1-4)GlcNAc(b1-3)Gal(b1-4)GlcNAc(b1-2)Man(a1-6)]Man(b1-4)GlcNAc(b1-4)GlcNAc
Procedure, shortened: as §1

[20] = target: Gal(b1-4)GlcNAc(b1-3)Gal(b1-4)GlcNAc(b1-2)Man(a1-3)[Gal(b1-4)GlcNAc(b1-3)Gal(b1-4)GlcNAc(b1-2)Man(a1-6)]Man(b1-4)GlcNAc(b1-4)[Fuc(a1-6)]GlcNAc
Procedure, shortened: as §1

[21] = target: Gal(b1-4)GlcNAc(b1-3)Gal(b1-4)GlcNAc(b1-2)[Gal(b1-4)GlcNAc(b1-3)Gal(b1-4)GlcNAc(b1-6)]Man(a1-6)[Gal(b1-4)GlcNAc(b1-3)Gal(b1-4)GlcNAc(b1-2)Man(a1-3)]Man(b1-4)GlcNAc(b1-4)GlcNAc
Procedure, shortened: as §1

[22] = target: Gal(b1-4)GlcNAc(b1-3)Gal(b1-4)GlcNAc(b1-2)[Gal(b1-4)GlcNAc(b1-3)Gal(b1-4)GlcNAc(b1-6)]Man(a1-6)[Gal(b1-4)GlcNAc(b1-3)Gal(b1-4)GlcNAc(b1-2)Man(a1-3)]Man(b1-4)GlcNAc(b1-4)[Fuc(a1-6)]GlcNAc
Procedure, shortened: as §1

B1: HHA (Hippeastrum hybrid) (protein)
chain: MQQDCNLVLYDVDKPIWASNTGGLARDCHLNMQSDGNLVVYAPRNQVIWASNTQGENGNYVCILQKDRNVVIYGTARWATGTNIHGAGIVGVPGSAPQNTTAEMIKLVRKYLITK
For B1, the “glycan array binding signal (z-score)” value [1] was 0.444, the “glycan array binding signal (z-score)” value [2] was -0.212 and the “glycan array binding signal (z-score)” value [3] was 2.08. For the same binder, the “glycan array binding signal (z-score)” value [4] was 0.747, the “glycan array binding signal (z-score)” value [5] was 0.019 and the “glycan array binding signal (z-score)” value [6] was 3.97. The “glycan array binding signal (z-score)” value [7] was 0.094, the “glycan array binding signal (z-score)” value [8] was 0.218 and the “glycan array binding signal (z-score)” value [9] was -0.21. For the same binder, the “glycan array binding signal (z-score)” value [10] was -0.207, the “glycan array binding signal (z-score)” value [11] was -0.199 and the “glycan array binding signal (z-score)” value [12] was -0.199. For the same binder, the “glycan array binding signal (z-score)” value [13] was -0.204, the “glycan array binding signal (z-score)” value [14] was -0.212 and the “glycan array binding signal (z-score)” value [15] was 0.446. The “glycan array binding signal (z-score)” value [16] was -0.209, the “glycan array binding signal (z-score)” value [17] was -0.211 and the “glycan array binding signal (z-score)” value [18] was -0.194. For the same binder, the “glycan array binding signal (z-score)” value [19] was -0.125, the “glycan array binding signal (z-score)” value [20] was -0.153 and the “glycan array binding signal (z-score)” value [21] was -0.124. The “glycan array binding signal (z-score)” value [22] was -0.149.
